# In publication PMC12136788:
# Some of the results follow.
# T1: UNK ZnF1-3 (human, UniProt Q9C0B0 31-174)
# T1 sequence: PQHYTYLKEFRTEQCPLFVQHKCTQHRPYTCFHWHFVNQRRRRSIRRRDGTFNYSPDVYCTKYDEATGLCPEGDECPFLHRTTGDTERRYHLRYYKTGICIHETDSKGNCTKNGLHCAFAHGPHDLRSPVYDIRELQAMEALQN
# B1: chr8:117878989:117878990:-_ENSG00000164754_ENST00000297338|hu_hu|hu_hu_hu_mus_True|1_58 (ssRNA)
# RNA: GGGAGUUCUACAGUCCGACGAUCCCAGAGGCCCUCGUUUACUGAGGACAAAAUGUGCGUAGAACAUUUUUCUUAUUGGCUAUGAAAUAAGAAGAAACCUGGAUCUCGGCGGGGAGCCGGGAGGGGUGGGUGGCCCGGGGGAGGCAACAGAGGAUUGAGCAUCA
# B2: chr6:53156713:53156714:-_ENSG00000012660_ENST00000304434|hu_hu|FALSE|FALSE (ssRNA)
# RNA: GGGAGUUCUACAGUCCGACGAUCGACAGAGCAGAUAAAUGUGGGUAUAUAAUUGUCCAGAAGAAACCAUCCUUUUACUCUAGUAUCUCGAGGGCCUAGCAAUGCCUUGAAAUAGGUACUAAGUGAUGCAUCAAAAUGUUCCAUCAACAGAGGAUUGAGCAUCA
# B3: chr1:46159212:46159213:+_ENSG00000159596_ENST00000372025|hu_mus|hu_hu_hu_mus_True|48_68 (ssRNA)
# RNA: GGGAGUUCUACAGUCCGACGAUCUCUGAUCCCUCCCAAGAAAGCUAGGAAACCGGCUCCAUAAGCCAUCUGAGUAAAAGCUAGGACGGGAAUAUAAGACUUUGUUAUUACCAUGAGAAGUGGGGGAGCAGUAAAGGGGAUUAACAACAGAGGAUUGAGCAUCA
# B4: chr18:35833404:35833405:-_ENSMUSG00000024350_ENSMUST00000025208|mus_hu|FALSE|FALSE (ssRNA)
# RNA: GGGAGUUCUACAGUCCGACGAUCACUACAAGACCUGGGUCAUCCUCUCUGGGCCAAUGUUCUCAUUCAUAGAACCAGGGAUAAUACAUCUACUUCAGAGUUGUGAGGAGGUUUAAGUAAGAAAAUAUGUGUGAGAGCCCCUGCCAACAGAGGAUUGAGCAUCA
# B5: 138110163_138113869_380_3pUTR_ENSMUSG00000028138_ENSMUST00000005964|mouse|control|control (ssRNA)
# RNA: GGGAGUUCUACAGUCCGACGAUCAGUGACCCUUAUUUUCUGGCAAAGGUUUGUUUUAGGAUUCAGACAAAACUUGCAUUCUCCACACUGUGGGAUGUAGAGUGGGAUGACAGUGUCACCUGCCUUCAGCUUCGUGACCCCUUCCAACAGAGGAUUGAGCAUCA
# B6: chr4:148551591:148551592:-_ENSMUSG00000063077_ENSMUST00000060537|mus_hu|mus_mus_mus_hu_False|58_58 (ssRNA)
# RNA: GGGAGUUCUACAGUCCGACGAUCACCUGACAAAAUUAAAUAUCCCUGUAAAUUAGACAAUAAGCAGCAGGCAACAAAGUCUAUGCUUUGGAAUAUGUGCCAGGAAAAGUCAUCUUGUUUUUAGAUCUCAAGAGACAGUUCACACAACAGAGGAUUGAGCAUCA
# B7: chr8:79514634:79514635:+_ENSG00000171033_ENST00000352966|hu_mus|FALSE|FALSE (ssRNA)
# RNA: GGGAGUUCUACAGUCCGACGAUCGUUGUGUUUUACAAAAGAAGGUUCUGCCCUGUUCACGCCACAACACUAUGGGAAAUUAAAAAGGCAGCCCUUUAAAAAAUGAGCGGUAUAAAAAUUCACAGUCAUGUACAUCAUUUUGUUCAACAGAGGAUUGAGCAUCA
# B8: chr16:94690093:94690094:+_ENSMUSG00000040785_ENSMUST00000117648|mus_hu|mus_mus_mus_hu_True|8_58 (ssRNA)
# RNA: GGGAGUUCUACAGUCCGACGAUCGGGCUGGGAUGACGGACACACAGCCUCGAUUCCAGGGGGAAAAAGUCUUAGUCAAUACUAAUUAAAAAGUGUUAAUGAUUUUUGAAAAUCAGAUUACAUCUAUUUGAAUCAUAAAGCAAACAACAGAGGAUUGAGCAUCA
# B9: chr1:93819538:93819539:+_ENSG00000117505_ENST00000370267|hu_mus|FALSE|FALSE (ssRNA)
# RNA: GGGAGUUCUACAGUCCGACGAUCCUCUUCAGGAAUGCCGAGGUUUUCCAAACGAGAACUGGCCUUUCUUCUUUUUAAUGCUACUGUCUUGCAUUCUUGUAAGACUUCUUUUACUUCACUGAUGUAAGAGCCAAAGCCCAAACUCAACAGAGGAUUGAGCAUCA
# B10: 216272015_216273021_2753_CDS_ENSG00000115414_ENST00000323926|human|control|control (ssRNA)
# RNA: GGGAGUUCUACAGUCCGACGAUCUACUGAUGGCGAAUAGACUAUUCUGUACCCUGUGAUGGGAGCCUGGGGUCUGCUCCAGCGAACAACAAUUGAGGUGUCAUCAACUUGGUCCACAGUCGUGUCAGGAGGGGCAUCAGGCGCCAACAGAGGAUUGAGCAUCA
# B11: chr17:60770872:60770873:+_ENSG00000011028_ENST00000303375|hu_hu|hu_hu_hu_mus_True|1_48 (ssRNA)
# RNA: GGGAGUUCUACAGUCCGACGAUCUCUUUAAAAAAAAAAAAAAAAAGACAAACAAUAAUAGCACAUUUCGAGAAUCAAGAACUACAAAGAAAGGGCCGCUUUGAGUUUUUGUUCACAUCGUCCUGCACUGGGACACGACCAGGACAACAGAGGAUUGAGCAUCA
# B12: chr9:135205225:135205226:-_ENSG00000107290_ENST00000224140|hu_mus|motif|central (ssRNA)
# RNA: GGGAGUUCUACAGUCCGACGAUCUGUAGAAGUUGAAUCCCCAAAAGUGCUAUAUUGGGGCAUUUUGAAUUUUAUGUUUCGGAUUAUUUGUUUCAAACACAUUUGUAACUCAUGGGUUUCUUGACCAGUCAAUUGCCAACCCAGCAACAGAGGAUUGAGCAUCA
# B13: chr9:53370893:53370894:+_ENSMUSG00000033054_ENSMUST00000035850|mus_hu|FALSE|FALSE (ssRNA)
# RNA: GGGAGUUCUACAGUCCGACGAUCUGCUGAAUCAUUAGAUGGUUGUUUAGUAGAAGACAGCGAAUCUCCAAGAUGAAUUUCUACUUGUCCAGAUACAUUUAAAUGUGAACUUUCAACAGACACAGGUAGUAUUUCACUUUGAAGCAACAGAGGAUUGAGCAUCA
# B14: chrX:34632047:34632048:-_ENSMUSG00000036572_ENSMUST00000076265|mus_hu|motif|central (ssRNA)
# RNA: GGGAGUUCUACAGUCCGACGAUCUAACUAUUUAAAUUUUUGUAUCAACGAAAGUGUGUUCUAUCCUUCACUGUACCUGUACGGCAAGGACAUGCUUGUUGCUUCUACACUACCCAAUGUCAACACUUAUCAUCAACAAUACAACAACAGAGGAUUGAGCAUCA
# B15: chrX:77160730:77160731:+_ENSG00000131174_ENST00000481445|hu_mus|FALSE|FALSE (ssRNA)
# RNA: GGGAGUUCUACAGUCCGACGAUCCUACUGAUCUCUCCAUUCCUUUGGGGUGACUCUGCCAACAGGGGACAUGUUCCAUUCUAUUCCAAUUUGUGUGGCUGUAUAUGUCCAUGUAGAAACACAGAAGAUGGCUCCACCUGCUAACAACAGAGGAUUGAGCAUCA
# B16: chr4:142145789:142145790:+_ENSG00000109445_ENST00000262990|hu_mus|motif|central (ssRNA)
# RNA: GGGAGUUCUACAGUCCGACGAUCACACUGUGCACAAAUUGGUAACUUCUGAACAGAAUUACAAAAAUAGCAAAAUGCUCGGUUCUUCUGCCGCCUCUGACAUUUGUCGCAUUCCAUUGAAGCAUUGCAUGGGUGUUUGGCUAGCAACAGAGGAUUGAGCAUCA
# B17: 71532538_71534999_805_CDS_ENSG00000132485_ENST00000254821|human|control|control (ssRNA)
# RNA: GGGAGUUCUACAGUCCGACGAUCCCUCUCAGGAGAAGAUGAUGAACUUGAAUAAGAUCUUUUUCGUGGGGAAGAAGAGCCCCUGUGGGACCUGGAGCUGGAUCUUGAUUUCGACCCACGAGAUCUCGAACGUUCUCUGGAACUCAACAGAGGAUUGAGCAUCA
# B18: chr6:71460543:71460544:+_ENSMUSG00000052656_ENSMUST00000064637|mus_mus|FALSE|FALSE (ssRNA)
# RNA: GGGAGUUCUACAGUCCGACGAUCCAACCAAAUAAAUUCUGUCAUCAACAUCAGCAUAAUGUGUAUUUCCUGUCACUGCACUAACAUUAAACUAAACUUCAAACCACAAAAACAUUGUGACUAACAUUAAAAAGGCAAGCUGUACAACAGAGGAUUGAGCAUCA
# B19: chr22:19452774:19452775:-_ENSG00000070010_ENST00000399523|hu_hu|hu_hu_hu_mus_False|18_108 (ssRNA)
# RNA: GGGAGUUCUACAGUCCGACGAUCCUUUUCAUUAUAGUUGAUAGCAAUCACAUCUCCAGUCGUCAGACAGGCGAAGUUUCUCAAUGCAUUUUCUAAUACCGCUUUAGGGUUGGUAAUGUCCAGGAAGUCUGGGCUCUGAGGCUGCAACAGAGGAUUGAGCAUCA
# B20: chr1:220312391:220312392:+_ENSG00000067704_ENST00000302637|hu_mus|FALSE|FALSE (ssRNA)
# RNA: GGGAGUUCUACAGUCCGACGAUCAUCUGUCUCGGGGUUAAAACCGGUCAAAUUUCCCAAGAGAAAGCGGAGUGUGUUUCUGAGCUUGCUGAUGUCAUCUCUGGCAGCAGAGAGUACAGAGGGGCCAAUGGUCACCUCCGUGAACAACAGAGGAUUGAGCAUCA
# B21: 72348259_72351899_1274_CDS_ENSG00000157107_ENST00000430046|human|control|control (ssRNA)
# RNA: GGGAGUUCUACAGUCCGACGAUCCUCCUCAUUAGACAAAUUCCGAUUCAUCUGUACUGGACUGUGUCUAGAUAUUGCUGGGGAGAGUGUUAUAUUCCCUAUAGAUACUUUUAAUUCAUCCAAAGAAGCCAUUGUGUGAUGUGACAACAGAGGAUUGAGCAUCA
# B22: chr7:134027783:134027784:-_ENSMUSG00000059981_ENSMUST00000071268|mus_mus|motif|central (ssRNA)
# RNA: GGGAGUUCUACAGUCCGACGAUCGGAUGAACCCCGGAUAUUGGUGCACACAGGGUCCUGAAUCCCAGGUAUUUUAAAUUCGGUAAAACAGAGACCCAGGUUUGUAAAGGUUGGGACUUUGGGUCCCAGAUAUCUGAUAUACGACAACAGAGGAUUGAGCAUCA
# Target: T1, UNK ZnF1-3
# Assay: nsRBNS (natural sequence RNA bind-n-seq); RBNS binding buffer (assumed for nsRBNS): 25 mM Tris pH 7.5, 150 mM KCl, 3 mM MgCl2, 0.01% Triton X-100, 500 ug/ml BSA, 20 U/ml SUPERase-In, 4 C; UNK is unkempt and MSI1 is Musashi-1; names of the RNAs are library labels; protein concentration not given here; high values mean tight binding
row,Binder,binding signal
1,B1,1.58 enrichment R
2,B2,1.32 enrichment R
3,B3,1.53 enrichment R
4,B4,1.42 enrichment R
5,B5,0.768 enrichment R
6,B6,1.22 enrichment R
7,B7,0.706 enrichment R
8,B8,0.555 enrichment R
9,B9,0.507 enrichment R
10,B10,1.62 enrichment R
11,B11,2.83 enrichment R
12,B12,0.772 enrichment R
13,B13,0.526 enrichment R
14,B14,0.732 enrichment R
15,B15,1.04 enrichment R
16,B16,1.05 enrichment R
17,B17,0.818 enrichment R
18,B18,1.27 enrichment R
19,B19,0.725 enrichment R
20,B20,0.843 enrichment R
21,B21,0.904 enrichment R
22,B22,0.904 enrichment R
